Results published in PubChem BioAssay AID540267 (National Center for Advancing Translational Sciences (NCATS), 2011).
The whole screen tested about 340,000 compounds, of which about 530 (0.16%) were called active. The inconclusive results got no clear call from the source; some entries with a clear call stand among them for comparison. No stated cut-off is given here; in the data, active means activity change below about -80%; inconclusive means between about -30% and that limit; inactive means weaker than that.

experiment: Small Molecules that selectively kill Giardia lamblia: qHTS; details: Giardia lamblia trophozoite viability; at 7.66 µM; stronger effect = lower value;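 further: parasites exposed to compound for two days anaerobically before the ATP read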
How it was run: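 Anaerobic 48 hrs incubation at 37 deg C of 100 trophozoites/well with test compounds; ATPLite 1-Step luminescence, 15-30 min RT, reports cellular ATP as viability.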
On the % scale 0 is the no-effect control and ±100 the full control effect.

Row | SMILES | activity change
1 | Cc1cc(=O)n2c3c(cccc13)CCC2 | inconclusive: -37.9% [inhibitor]
2 | CCOc1ccc(/C=C2/SC(=S)N(CCC(=O)Nc3ccc(C(=O)O)cc3)C2=O)cc1 | inconclusive: -34.9% [inhibitor]
3 | COc1cc(OC)cc(-c2nnc(SCc3cccc(C(=O)O)c3)o2)c1 | inactive: -4.27%
4 | CCCNC(=O)CCn1c(=S)oc2ccccc21 | inactive: 16.1%
5 | CCN(C(=O)COC(=O)c1ccc([N+](=O)[O-])o1)c1cccc2ccccc12 | inconclusive: -41.2% [inhibitor]
6 | CSc1c(C#N)c(N)nc2sc(C(=O)c3ccc(Cl)c(Cl)c3)c(N)c12 | inconclusive: -38.9% [inhibitor]
7 | Cc1cc(-n2c(SCC(=O)NCCC3=CCCCC3)nc3n[nH]c(C)c3c2=N)ccc1Cl | inactive: -12.9%
8 | Fc1ccc(-c2nnc(-c3ccc(Cl)cc3Cl)o2)cc1 | inconclusive: -38.8% [inhibitor]
9 | CCN(CC)CCN1C(=O)C(O)=C(C(=O)c2cccs2)C1c1ccccn1 (stereo not given) | inactive: 17%
10 | Cc1ccc(CNC(=O)c2cc3c(=O)n4ccccc4nc3n(Cc3ccco3)c2=N)cc1 | inactive: 1.65%
11 | COc1cc(C2c3c([nH]c(=O)[nH]c3=O)Nc3ccc4ccccc4c32)ccc1O (stereo not given) | inconclusive: -37.7% [inhibitor]
12 | CN(C)CC(C(=O)c1ccccc1)c1ccccc1 (stereo not given) | inconclusive: -31.7% [inhibitor]
13 | CC1(C(=O)N/N=C/c2ccc([N+](=O)[O-])o2)CC1(Br)Br (stereo not given) | active: -90.2%
14 | Cc1nnc(SCc2ccc([N+](=O)[O-])cc2)[nH]c1=O | inconclusive: -48.1% [inhibitor]
15 | CCOc1ccc(-c2cn3ccccc3n2)cc1 | inconclusive: -68.2% [inhibitor]
16 | COc1ccc([N+](=O)[O-])cc1N(CC(O)CN1CCOCC1)S(=O)(=O)c1ccccc1 (stereo not given) | inconclusive: -33.6% [inhibitor]
17 | Cc1onc(-c2c(F)cccc2Cl)c1C(=O)Nc1nnc(C2CC2)s1 | inactive: 9.61%
18 | Clc1ccccc1-c1ncc(-c2ccccc2)o1 | inconclusive: -54.6% [inhibitor]
19 | CC(NC(=O)c1cccnc1)C(=O)O (stereo not given) | inactive: -17%
20 | CCCNC(=O)C(Cc1ccccc1)NS(=O)(=O)c1ccc2c(c1)CCC(=O)N2 (stereo not given) | inconclusive: -31.4% [inhibitor]
21 | COc1ccccc1CNC(=O)C1CCCN(S(=O)(=O)c2cccs2)C1 (stereo not given) | inactive: -27.4%
22 | COc1ccc(CCNS(=O)(=O)c2ccc3c(c2)NC(=O)C(C)S3)cc1OC (stereo not given) | inactive: -8.84%
23 | COc1ccc(C(=O)NNC(=O)C23CC4CC(CC(C4)C2)C3)cc1OC | inconclusive: -34.7% [inhibitor]
24 | Cc1ccc([C@H]2C(C(=O)O)=CC[C@@H](c3ccc(Cl)cc3)N2S(=O)(=O)c2ccc(C)cc2)cc1 | inconclusive: -41.1% [inhibitor]
25 | Cc1ccc2nc(NC(=O)c3cccs3)sc2c1 | inconclusive: -30.6% [inhibitor]

Row | SMILES | activity change
26 | COc1ccc(CSc2nc3ccccc3[nH]2)cc1 | inconclusive: -54.3% [inhibitor]
27 | O=C(C[n+]1cc(-c2ccc(F)cc2)n2c1CCC2)Nc1nc(-c2ccc(F)cc2)cs1 | inactive: -2.52%
28 | O=C(Nc1cccc(S(=O)(=O)c2cccc(NC(=O)c3ccco3)c2)c1)c1ccco1 | inactive: 26%
29 | CN1C(C(=O)NCc2ccc(OC(F)(F)F)cc2)CC2Cn3c(nc4cc5ccccc5cc43)C21 (stereo not given) | inconclusive: -39.3% [inhibitor]
30 | Cc1nc2c(nc1C)C(=O)c1ccccc1C2=O | inconclusive: -51.9% [inhibitor]
31 | C=C1CSc2nc(=O)c3c4c(sc3n21)CCCC4 | inconclusive: -32.8% [inhibitor]
32 | N#Cc1cccc(C(c2nnnn2C2CCCC2)N2CCC(Cc3ccccc3)CC2)c1 (stereo not given) | inconclusive: -33.2% [inhibitor]
33 | Cc1ccc(NCC(=O)N/N=C\c2ccc([N+](=O)[O-])o2)cc1 | active: -106%
34 | Fc1ccc(Br)cc1/C=N/n1cnnc1 | inconclusive: -35.9% [inhibitor]
35 | O=C(/C=C/c1ccc([N+](=O)[O-])s1)N1CCCC1 | active: -86.9%
36 | CN=c1scc(-c2ccccc2F)n1/N=C/c1ccc[nH]1 | inconclusive: -60.1% [inhibitor]
37 | Cc1ccc(CCNC(=O)CS(=O)Cc2nc(-c3ccccc3F)oc2C)cc1 (stereo not given) | inconclusive: -34.2% [inhibitor]
38 | O=C(COc1ccc(Cl)cc1Cl)Nc1cccnc1 | inconclusive: -31.4% [inhibitor]
39 | Cc1c(OC(C)C(=O)NC(Cc2c[nH]c3ccc(O)cc23)C(=O)O)ccc2c1oc(=O)c1ccccc12 (stereo not given) | inconclusive: -40.4% [inhibitor]
40 | CCOC(=O)c1ccccc1NC(=O)Cn1cnc2c(cnn2C(C)(C)C)c1=O | inconclusive: -30.3% [inhibitor]
41 | O=C(C(=O)N(Cc1ccccc1)Cc1ccccc1)c1c(-c2ccccc2)[nH]c2ccccc12 | inconclusive: -30.2% [inhibitor]
42 | Cc1[nH]c2ccccc2c1CCN(Cc1cccnc1)C(=S)Nc1ccc(F)cc1 | inconclusive: -41.7% [inhibitor]
43 | O=C(O)c1cccc(S(=O)(=O)N(Cc2ccccc2)c2ccccc2Cl)c1 | inconclusive: -47.9% [inhibitor]
44 | Cc1ccc(NC(=O)c2ccc(OC(=O)COc3cccc(Cl)c3)cc2)cc1 | inconclusive: -35% [inhibitor]
45 | COC(=O)C1=NN(c2ccc(OC)cc2)C2C(=O)N(c3ccccc3OC)C(=O)C12 (stereo not given) | inactive: 6.31%
46 | Cc1ccc(S(=O)(=O)Nc2c(C)nn(C)c2C)cc1 | inactive: 9.37%
47 | CCOc1ccc(OCc2cccc(C(=O)O)c2)cc1 | inconclusive: -57.4% [inhibitor]
48 | COc1ccc(OC)c(C(O)CNC(=O)CN)c1 (stereo not given) | inconclusive: -32% [inhibitor]
49 | Cc1cccc(N/C=C/C(=O)c2cccs2)c1C | inconclusive: -32.5% [inhibitor]
50 | O=C(Cc1ccc(Br)cc1)OCC(=O)N1CCOCC1 | inconclusive: -37% [inhibitor]
